Experimental findings from ChEMBL document CHEMBL4888484, “Replenishing the malaria drug discovery pipeline: Screening and hit evaluation of the MMV Hit Generation Library 1 (HGL1) against asexual blood stage Plasmodium falciparum ,using a nano luciferase reporter read-out” (2022) are described below.

Structures are written as SMILES. Hit rate of the full screen: of about 150,000 compounds, about 540 (0.36%) showed an effect of 50% or more. The list shows a part of the results.

The subject of the assay is Plasmodium falciparum. The assay can be described thus: Primary screen in NF54 nanoGlo assay, in single point, at 2uM, 72h; a lower Z score goes with more inhibition. It counts as functional, Erythrocyte. The following applies: timepoint 72 hour.
As for `Cc1nccn1C1CN(C(=O)c2cccc3[nH]ccc23)C1`, the “% Inhibition” value was -6% and the Z score came out at 0.74.
The like results for `C[C@]12CCC3C(CC[C@H]4CC(O)CC[C@]34C)C1CCC2NC(=O)CN1CCOCC1` (some centres undefined) were, in that order, -10% and 1.26.
In the case of `Cn1nccc1C(=O)NC1CCN(c2nc3cccnc3s2)CC1`, the “% Inhibition” value is -8% and the Z score was 1.51.
As for `CC1CN(C(=O)c2ccc3[nH]nnc3c2)CC(C)O1` (centres undefined), the “% Inhibition” value came to 6% and the Z score was -1.18.
The like results for `c1ccc2nc(N3CCN4CCC[C@H]4C3)cnc2c1` were, in that order, -4% and 0.77.
The like results for `Cc1cccc(CC2(N[C@@H](C)CCn3ccnc3C)CC2)c1` were, in that order, -3% and 0.53.
For `CCOC(=O)c1noc2nc(C)nc(N3CCCC3)c12`, in that order: -10% and 1.84.
As for `CC(C)(C)[C@H]1OCC[C@@H]1c1noc(-c2ccnc3ccncc23)n1`, the “% Inhibition” value is recorded as -7% and the Z score came to 1.35.
For `CN(C)CC(=O)N1CC[C@H]1c1cccc(Br)c1`, in that order: -8% and 1.55.
For `OCC1(CO)CCCN(Cc2cnc3c(-c4ccccc4)cnn3c2)C1`, in that order: 3% and -0.38.
For `CC1CC1CN(C(=O)Nc1cccnc1)C(C)C` (centres undefined), in that order: -3% and 0.48.
For the compound `Cc1cccc(C(=O)Nc2cccc(C(=O)NC3CC3)c2)n1`, the “% Inhibition” value was -15% and the Z score stood at 2.52.
For `Cc1nc(Cn2nnc(NC(=O)C[C@@H]3C=CCCC3)c2C)no1`, in that order: 2% and -0.38.
For the compound `CC(=O)NC1CCC(N[C@@H](C)c2cc3ccccc3o2)CC1` (some centres undefined), the “% Inhibition” value was -4% and the Z score was determined as 0.81.
The like results for `COc1ccc([C@@H](NC(=O)c2noc3c2COCC3)C(F)(F)F)cc1F` were, in that order, -9% and 1.29.
For `C[C@@H]1OCCO[C@@H]1C(=O)N1c2ccc(F)cc2NC(=O)C12CCC2`, in that order: -4% and 0.6.
For `Cc1cc(NC(=O)C2(S(C)(=O)=O)CCCC2)nc(C(C)C)n1`, in that order: 0% and -0.06.
Consider `COc1cc(-c2nc(C3CC3)no2)cc2c1OCCO2`, for which the “% Inhibition” value is -6% and the Z score is listed as 0.8.
The like results for `COc1ccc(C(=O)N2CCN(c3nc(CN4CCN(c5ccccc5F)CC4)cc(=O)[nH]3)CC2)cc1` were, in that order, -6% and 0.96.
The like results for `CN(C)CC1CCC(NS(=O)(=O)c2ccc(OCC(F)(F)F)nc2)CC1` (centres undefined) were, in that order, -2% and 0.3.
Turning to `N#Cc1cccc(CN2CCC3(CCC(=O)N(CCc4ccccn4)C3)CC2)c1`, the “% Inhibition” value was -3% and the Z score was found to be 0.31.
For `Cc1cc(CN(C)C(=O)C2=NNC(=O)CC2)no1`, in that order: -9% and 0.97.
Turning to `Cc1csc(CNC(=O)N2CC[C@H](N3CCCS3(=O)=O)C2)c1`, the “% Inhibition” value was -12% and the Z score is recorded as 2.57.
The like results for `Cc1ccc(CNC(=O)N2CC(F)C2)s1` were, in that order, -6% and 1.12.
The like results for `Cc1ccsc1CNC(=O)Cn1cc(-c2ccccc2)c(C(F)(F)F)n1` were, in that order, -5% and 0.9.
The like results for `O=C(Nc1ccccc1Cl)c1ccc(F)c(S(=O)(=O)N2CCC(Cc3ccccc3)CC2)c1` were, in that order, -3% and 0.41.
With `Cc1nc2c([nH]1)CN(Cc1ccc3c(c1)OCCO3)CC2`, the “% Inhibition” value was -18% and the Z score was found to be 2.4.
Turning to `Cc1ccc(S(=O)(=O)NC2CNCCC2C)cc1C` (centres undefined), the “% Inhibition” value is -5% and the Z score came out at 0.88.
For `COc1cc(OC)c(N2C(=O)CC[C@@]2(C)C(=O)NC2CCCC2)cc1Cl`, in that order: -10% and 1.83.
For `CCc1ccc(NC(=O)N2C[C@@H]3CN(S(=O)(=O)c4ccccc4)C[C@H](C2)O3)cc1`, in that order: -9% and 0.84.
The like results for `Cc1ccccc1CNC(=O)N1CCC2(CC1)[C@H](O)C[C@@H]2OCCO` were, in that order, -3% and 0.54.
Take `O=C(N[C@H]1CCN(Cc2ccsc2)C1)c1cnccn1`: the “% Inhibition” value is -10% and the Z score was determined as 1.52.
For `Cc1c(-c2cc(-c3cc(CN(C)C)cs3)nc(N)c2C#N)cnn1C`, in that order: -6% and 0.72.
On to `Cc1ncc(C(=O)N2C[C@@H]3CCCN3Cc3ccccc32)s1`, for which the “% Inhibition” value is -7% and the Z score was 0.95.
For `CCN1C(=O)[C@@H]2CN(C(=O)c3ccc4[nH]c(C)c(C)c4c3)CCN2C1=O`, in that order: 0% and -0.04.
The like results for `O=S(=O)(c1ccccc1C(F)(F)F)N1CC[C@]2(CCN(c3cccnc3)C2)C1` were, in that order, 38% and -5.11.
For `CN(C(=O)[C@@H]1CCCCC(=O)N1)C(C)(C)CN1CCOCC1`, in that order: -3% and 0.31.
As to `CN(CCC1(O)CCCC1)C(=O)c1cccc(F)c1F`, the “% Inhibition” value is given as -11% and the Z score is reported as 1.51.
For `Cc1cccc(C(=O)NCCNc2noc(-c3ccccc3)n2)c1`, in that order: -9% and 1.37.
Turning to `CC(C)N1CCC(CCNC(=O)[C@H]2CN(C(=O)c3ccncc3)CC23CCCCC3)CC1`, the “% Inhibition” value is 6% and the Z score is on record as -1.06.
The like results for `C/C=C/CC(=O)N1CCC2(CC1)C[C@@H](c1ccccc1)C(=O)N(C)C2` were, in that order, 2% and -0.24.
`CCCn1cnc(C(N)=O)c1NC(=O)Cc1c(C)noc1C`: the “% Inhibition” value was -12% and the Z score was found to be 2.33.

What is called % Inhibition is the change of the read-out against control, counted positive when it falls.
